{"source": "paper PMC7819943", "about": "“Rice protein-binding microarrays: a tool to detect cis-acting elements near promoter regions in rice”", "note": "Some of the results follow."}
{"molecular_target": "T1, OsWOX13 (Oryza sativa, UniProt Q5QMM3 1-267)", "T1 sequence": "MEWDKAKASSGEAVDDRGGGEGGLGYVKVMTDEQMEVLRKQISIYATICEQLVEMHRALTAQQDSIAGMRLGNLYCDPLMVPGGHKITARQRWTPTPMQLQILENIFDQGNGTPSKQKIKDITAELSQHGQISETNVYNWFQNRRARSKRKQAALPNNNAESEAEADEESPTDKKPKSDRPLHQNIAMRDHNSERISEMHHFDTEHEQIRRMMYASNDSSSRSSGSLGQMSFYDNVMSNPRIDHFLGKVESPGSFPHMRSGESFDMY", "experiment": "protein-binding microarray (RPBM); PBS, 2% BSA, 51.3 ng/ul salmon testes DNA, 50 uM zinc acetate, 200 nM TF, 25 C, 1 h; high values mean tight binding", "conditions": "protein: recombinant; tags: N-terminal polyhistidine and DsRed monomer fusion (pET32a); label: CyDye5-dUTP incorporated in the synthesized complementary strand; 3' TTTTT single-stranded linker to array surface; dsDNA, one strand shown", "summary_of_the_method": "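Ni–NTA purification followed expression in E. coli BL21-CodonPlus of transcription factors fused N-terminally to a polyhistidine tag and DsRed. At 200 nM in PBS with 2% BSA, salmon testes DNA and 50 µM zinc acetate, the protein was incubated for 1 h at 25 °C with a custom Agilent array that had been primer-extended with Cy5-dUTP and blocked with 2% BSA. After washing, the array was read on an Axon 4000B scanner. The binding signal is per-feature fluorescence intensity in arbitrary units.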"}
{"sequence": "ATAGATAACTGATTTTATGTTTGTGAGTGAGCATTGGTATCGGAGTCACCTAGTGCAG", "binding signal": "24300 fluorescence intensity (a.u.)"}
{"sequence": "ATAGACAAACTAAATAAGGGTTAATTGGATCCATGCCATTCGGAGTCACCTAGTGCAG", "binding signal": "12700 fluorescence intensity (a.u.)"}
{"sequence": "GGCGCATACTTGATTTTGATTAGGAAATCTGAAAACTCCCCGGAGTCACCTAGTGCAG", "binding signal": "15300 fluorescence intensity (a.u.)"}
{"sequence": "GTACCGTGATTAATCAGAGTTACTCCCTCCGTTATAGGTTCGGAGTCACCTAGTGCAG", "binding signal": "23500 fluorescence intensity (a.u.)"}
{"sequence": "TTGGCAAAATCCAATCAAATTCTGTCCTCTCCTGCGAACCCGGAGTCACCTAGTGCAG", "binding signal": "3910 fluorescence intensity (a.u.)"}
{"sequence": "ACATAATTTAATCCATGGTTACTTTGTAGCTGACATTTTACGGAGTCACCTAGTGCAG", "binding signal": "11500 fluorescence intensity (a.u.)"}
{"sequence": "GGGACAATCAGGGATTGTATGGTTTGAAGCTGATTTTGGCCGGAGTCACCTAGTGCAG", "binding signal": "3320 fluorescence intensity (a.u.)"}
{"sequence": "TTTGTTCATATCAAATGCCCTGATTGATATGTATTCCAAACGGAGTCACCTAGTGCAG", "binding signal": "36500 fluorescence intensity (a.u.)"}
{"sequence": "TTTTAAAATTTAACAAATATAATTATAATACAATTGTGGTCGGAGTCACCTAGTGCAG", "binding signal": "14700 fluorescence intensity (a.u.)"}
{"sequence": "CACGCGACGCGGTGAATTGATTGATCGACCGATTCCTCCCCGGAGTCACCTAGTGCAG", "binding signal": "26400 fluorescence intensity (a.u.)"}
{"sequence": "CACTATAATTTAACATACAAACTTCAAAATTTATCGTGAACGGAGTCACCTAGTGCAG", "binding signal": "8310 fluorescence intensity (a.u.)"}
{"sequence": "AAGTTATAATGTAATTACATACAAGTTACAGTATAATTACCGGAGTCACCTAGTGCAG", "binding signal": "8690 fluorescence intensity (a.u.)"}
{"sequence": "CTTCTGATAACAACTGATTAGAAACTATGTTAATTTGATGCGGAGTCACCTAGTGCAG", "binding signal": "31100 fluorescence intensity (a.u.)"}
{"sequence": "ATTAATTTGTCTGGGAGCATTTTACTTGACAAAGTTTTGCCGGAGTCACCTAGTGCAG", "binding signal": "18500 fluorescence intensity (a.u.)"}
{"sequence": "GATAATTTGAACCATAGATTTATCATTCAAAGGCTATAAACGGAGTCACCTAGTGCAG", "binding signal": "9720 fluorescence intensity (a.u.)"}
{"sequence": "TTTTAAGTCATAATTGATGTGAAGATAGAGTAAGTGCATTCGGAGTCACCTAGTGCAG", "binding signal": "10400 fluorescence intensity (a.u.)"}
{"sequence": "GTAGACAGATTCGTAGTATTTGATTATGTGTCTTATCATCCGGAGTCACCTAGTGCAG", "binding signal": "7710 fluorescence intensity (a.u.)"}
{"sequence": "GTACAATAATTTGCAAATTAAGTAGTTGTACCGTTGGTAGCGGAGTCACCTAGTGCAG", "binding signal": "35400 fluorescence intensity (a.u.)"}
{"sequence": "GATTAATTAGGCTCAAAAGATTCGTCTCGTGGTTTCCAGACGGAGTCACCTAGTGCAG", "binding signal": "19100 fluorescence intensity (a.u.)"}
{"sequence": "GGTGAAATTGGTGCAGAAATTAAGTTCAGTTCCATTCCATCGGAGTCACCTAGTGCAG", "binding signal": "13300 fluorescence intensity (a.u.)"}
{"sequence": "CGAAATTAGAAGTTGTTGTATATTATAATGGTCAAAATGACGGAGTCACCTAGTGCAG", "binding signal": "7220 fluorescence intensity (a.u.)"}
{"sequence": "GGTGATTCCGTGATTGGGTTTACGGCTAACTGTTTGCGGCCGGAGTCACCTAGTGCAG", "binding signal": "29000 fluorescence intensity (a.u.)"}
{"sequence": "AAGTGTTTGTAATTACTAAAATTTTGACATGAATTCAAATCGGAGTCACCTAGTGCAG", "binding signal": "8700 fluorescence intensity (a.u.)"}
